US20050038110A1, “Selective androgen receptor modulators and methods of use thereof” (priority 2000, published 2005)

biological target: T1, androgen receptor (AR) isolated from rat ventral prostate (Rattus norvegicus, UniProt P15207); assay: biochemical; type: binding; settings: not given
T1 sequence (P15207 1-902): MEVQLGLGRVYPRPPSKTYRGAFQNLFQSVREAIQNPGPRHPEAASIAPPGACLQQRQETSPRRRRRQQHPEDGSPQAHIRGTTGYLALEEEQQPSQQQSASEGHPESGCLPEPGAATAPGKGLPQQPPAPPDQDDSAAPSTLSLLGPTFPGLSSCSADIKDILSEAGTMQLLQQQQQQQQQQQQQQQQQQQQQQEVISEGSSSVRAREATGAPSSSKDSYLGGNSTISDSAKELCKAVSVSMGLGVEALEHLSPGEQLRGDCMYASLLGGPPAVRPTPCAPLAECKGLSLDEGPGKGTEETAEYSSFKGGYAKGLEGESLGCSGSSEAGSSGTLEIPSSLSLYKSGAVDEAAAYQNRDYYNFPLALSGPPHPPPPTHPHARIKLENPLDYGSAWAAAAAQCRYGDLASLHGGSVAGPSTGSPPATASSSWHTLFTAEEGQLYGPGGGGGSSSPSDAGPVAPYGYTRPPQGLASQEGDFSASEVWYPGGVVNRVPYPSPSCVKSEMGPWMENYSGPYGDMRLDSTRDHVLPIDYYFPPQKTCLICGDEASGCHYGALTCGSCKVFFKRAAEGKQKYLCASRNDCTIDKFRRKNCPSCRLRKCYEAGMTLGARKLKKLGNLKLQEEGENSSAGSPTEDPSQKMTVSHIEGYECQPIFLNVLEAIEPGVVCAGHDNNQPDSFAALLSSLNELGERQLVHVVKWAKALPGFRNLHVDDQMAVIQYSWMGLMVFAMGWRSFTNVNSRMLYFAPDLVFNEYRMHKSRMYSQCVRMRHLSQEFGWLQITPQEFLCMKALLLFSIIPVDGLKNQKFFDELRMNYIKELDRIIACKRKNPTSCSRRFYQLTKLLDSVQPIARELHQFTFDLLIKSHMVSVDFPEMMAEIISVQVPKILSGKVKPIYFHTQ

Compared with `C[C@](O)(COc1ccc(F)cc1)C(=O)Nc1ccc(Cl)c(C(F)(F)F)c1` [Compound 10], `C[C@](O)(COc1ccc(F)cc1)C(=O)Nc1ccc(F)c(C(F)(F)F)c1` [Compound 11] is 2.2-fold higher in Ki: 14.5 ± 0.18 nM for the first, 32.6 ± 0.1 nM for the second.

First: C[C@](O)(COc1ccc(F)cc1)C(=O)Nc1ccc(I)c(C(F)(F)F)c1 [Compound 12]
Second: C[C@](O)(COc1ccc(Br)cc1)C(=O)Nc1ccc(Br)c(C(F)(F)F)c1 [Compound 14]
The Ki of the first is 1.7-fold lower: 15.6 ± 0.19 nM for the first, 25.9 ± 0.04 nM for the second.

In the case of `C[C@](O)(COc1ccc(F)cc1)C(=O)Nc1ccc([N+](=O)[O-])c2nonc12` [Compound 17], the Ki is reported as greater than 1800 nM.

same assay, conditions: Table 1, B-ring halogenated SARMs; read-out: Ki

First: C[C@](O)(COc1ccc(Br)cc1)C(=O)Nc1ccc([N+](=O)[O-])c(C(F)(F)F)c1 [Compound 3]
Second: C[C@](O)(COc1ccc(I)cc1)C(=O)Nc1ccc([N+](=O)[O-])c(C(F)(F)F)c1 [Compound 4]
The Ki of the first is 1.8-fold lower: 12.6 ± 1.8 nM for the first, 23 ± 1.6 nM for the second. The first binds more tightly here.

same assay, conditions: Table 5 (Example 4); read-out: Ki

`C[C@](O)(COc1ccc(F)cc1)C(=O)Nc1ccc(C#N)c(Cl)c1` [Compound 7] and `C[C@](O)(COc1ccc(F)cc1)C(=O)Nc1ccc(C#N)c(I)c1` [Compound 16] are within 1.5-fold of each other in Ki: 4.5 ± 0.11 nM for the first, 3.5 ± 0.13 nM for the second.

Compared with `CC(=O)Nc1ccc(OC[C@](C)(O)C(=O)Nc2ccc(C#N)c(C(F)(F)F)c2)cc1` [Compound 8], `C[C@](O)(COc1ccc(F)cc1)C(=O)Nc1cccc(C(F)(F)F)c1` [Compound 15] is 4.9-fold higher in Ki: 12.7 ± 0.03 nM for the first, 62 ± 0.05 nM for the second.

`C[C@](O)(CBr)C(=O)Nc1ccc(Cl)c(C(F)(F)F)c1` [Compound 9] and `C[C@](O)(COc1ccc2[nH]ccc2c1)C(=O)Nc1ccc([N+](=O)[O-])c(C(F)(F)F)c1` [Compound 20] are within 1.5-fold of each other in Ki: 22.2 ± 0.17 nM for the first, 17 ± 0.64 nM for the second.

same assay, conditions: […], 3H-mibolerone, rat ventral prostate AR

First: C[C@](O)(COc1ccc([N+](=O)[O-])cc1)C(=O)Nc1ccc([N+](=O)[O-])c(C(F)(F)F)c1 [Compound N-1]
Second: C[C@](O)(COc1ccc(C#N)cc1)C(=O)Nc1ccc([N+](=O)[O-])c(C(F)(F)F)c1 [Compound N-2]
The RBA of the first is higher: 30% for the first, 26% for the second.

Compared with `C[C@](O)(COc1ccc([N+](=O)[O-])cc1)C(=O)Nc1ccc(C#N)c(C(F)(F)F)c1` [Compound N-3], `C[C@](O)(COc1ccc(C#N)cc1)C(=O)Nc1ccc(C#N)c(C(F)(F)F)c1` [Compound N-4] is lower in RBA: 32% for the first, 17% for the second.
